# In PubChem BioAssay AID1645882 (National Center for Advancing Translational Sciences (NCATS), 2021):
# Hit rate of the full screen: of about 16,000 compounds, about 120 (0.75%) were called active. Another 4% or so got no clear call; they are omitted. Calls come from the whole dose curve; as a rule, active = well fitted inhibition curve with a large enough effect; inconclusive = small, poorly fitted or top-dose-only effect; inactive = no such curve, though single readings can be large or run the other way. The list shows a part of the results.
# Molecular target: Rap guanine nucleotide exchange factor 3 (Homo sapiens) (UniProt O95398)
# Chain of UniProt O95398 (O95398 whole entry, looked up): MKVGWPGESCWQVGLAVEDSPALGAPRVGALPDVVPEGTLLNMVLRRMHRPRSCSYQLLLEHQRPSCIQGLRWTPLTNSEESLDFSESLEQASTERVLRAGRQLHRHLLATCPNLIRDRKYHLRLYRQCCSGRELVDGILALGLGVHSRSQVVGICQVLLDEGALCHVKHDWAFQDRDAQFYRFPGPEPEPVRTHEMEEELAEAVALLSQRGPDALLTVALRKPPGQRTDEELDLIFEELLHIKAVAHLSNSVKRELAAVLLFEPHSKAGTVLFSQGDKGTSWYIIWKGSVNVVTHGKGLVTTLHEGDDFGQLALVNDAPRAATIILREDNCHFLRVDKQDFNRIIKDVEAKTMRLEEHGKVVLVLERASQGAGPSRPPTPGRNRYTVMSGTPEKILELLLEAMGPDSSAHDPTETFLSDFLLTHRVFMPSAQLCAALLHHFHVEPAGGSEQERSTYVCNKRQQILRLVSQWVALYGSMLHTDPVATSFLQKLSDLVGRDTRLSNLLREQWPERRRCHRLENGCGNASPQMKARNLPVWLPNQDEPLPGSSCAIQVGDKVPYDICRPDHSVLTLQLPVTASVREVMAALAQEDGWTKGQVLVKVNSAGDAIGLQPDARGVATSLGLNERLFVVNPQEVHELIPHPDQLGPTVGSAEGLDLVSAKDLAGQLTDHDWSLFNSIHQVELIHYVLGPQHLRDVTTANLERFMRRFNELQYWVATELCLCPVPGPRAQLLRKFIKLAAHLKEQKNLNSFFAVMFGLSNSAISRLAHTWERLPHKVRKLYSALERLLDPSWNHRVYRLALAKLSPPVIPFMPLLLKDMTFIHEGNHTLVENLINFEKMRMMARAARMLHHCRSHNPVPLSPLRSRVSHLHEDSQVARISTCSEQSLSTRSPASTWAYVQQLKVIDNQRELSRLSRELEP
# Experiment: Validation qHTS for antagonist of cAMP-regulated guanine nucleotide exchange factor 3 (EPAC1);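 note: plate controls were DMSO for no effect and ATA control for full effect; nearly all actives have a fitted effect of over 75% in size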
# Conditions: EPAC1 Rap1B-BODIPY-GDP exchange, fluorescence; series mostly up to 150 µM; activity change, negative = inhibition: at the top concentration
# Procedure, shortened: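 Nucleotide exchange followed as fluorescence loss when BODIPY-GDP leaves Rap1B (480 nm excitation, 540 nm emission), read at 5 min intervals over 30 min. Reaction: 100 nM EPAC1, 250 nM RAP1B-BODIPY-GDP, 50 uM GDP; ATA and DMSO define normalization.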
row,Compound,"activity change, negative = inhibition"
1,NCCC[C@H](N)C(=O)O,inactive: 4.72%
2,Clc1ccc(C(Cn2ccnc2)OCc2c(Cl)cccc2Cl)c(Cl)c1 (centres undefined),inactive
3,COc1ccc2c(c1)OCc1c-2oc2cc(OC)ccc12,inactive: 12.1%
4,COc1c(O[C@@H]2O[C@H](CO)[C@@H](O)[C@H](O)[C@H]2O)cc2c(c1OC)-c1ccc(SC)c(=O)cc1[C@@H](NC(C)=O)CC2,inactive: 9.92% [at 75.8 µM]
5,Cn1cccc1C(=O)N1CCC2(CCCN(c3ccncc3)C2)CC1,inactive: -0.457%
6,COc1ccc(C(=O)NCC2Cc3c(F)ccc(-c4nc(C)cnc4C)c3O2)cc1F (centres undefined),inactive: 7.89%
7,NC(CO)(CO)CO,inactive: 27.1%
8,CCn1c(-c2cccc(OC)c2)nc2cc(NC(C)=O)cc(C(=O)N(C)CC3COCCO3)c21 (centres undefined),inactive: 13%
9,O=S(=O)(c1ccccc1)N1CCC2(CCCN(Cc3ccccc3)C2)CC1,inactive: 2.17%
10,CCC(Oc1ccccc1)C(=O)N[C@@H]1C(=O)N2[C@@H]1SC(C)(C)[C@@H]2C(=O)O (some centres undefined),inactive: 13.5%
11,CN(C)Cc1ccccc1-c1ccc2ncnc(NCc3cccs3)c2c1,inactive: 17.7%
12,COc1ccc(Oc2ncc3ncc(=O)n(C)c3n2)cc1,inactive: 9.6%
13,Cc1ccc(-c2nn(CC(C)(C)C)c3ncnc(N)c23)cc1,inactive: 4.82%
14,COc1ncc2nc(-c3ccc(F)cc3)c(=O)n(C3CC3)c2n1,inactive: 2.02%
15,CCOC(=O)C1OC1C(=O)NC(CC(C)C)C(=O)NCCC(C)C (centres undefined),inactive: 26% [at 201 µM]
16,CC(C)C(=O)NCC1CCC2(CCN(Cc3ccc(-c4cccc(Cl)c4)o3)CC2)O1 (centres undefined),inactive: 3.9%
17,C[C@@H](CCCCC(=O)Nc1ccc(C(F)(F)F)cc1)NCCc1cnc[nH]1,inactive: 5.07%
18,CN(C)CCN(Cc1cccs1)c1ccccn1,inactive
19,O=C(c1ccc2c(c1)OCO2)N(Cc1cc2cc3c(cc2nc1N1CCOCC1)CCC3)CC1CCCO1 (centres undefined),inactive: 21.6%
20,COCCn1c(=O)c(-c2cccc(C#N)c2)nc2cnc(N3CCNCC3)nc21,inactive: 2.44%
21,CN1CCN(c2ncc3nc(-c4cn(C)c5ccccc45)c(=O)n(CCc4ccccc4)c3n2)CC1,inactive: 21.3%
22,O=c1cc(-c2ccccc2O)oc2ccc3ccccc3c12,inactive: 17.3%
23,CC(=O)OCC(COC(C)=O)OC(C)=O,inactive
24,Cc1ccccc1N=C(N)Nc1ccccc1C,inactive
25,COc1ccccc1-c1cncnc1Nc1ccc(F)cc1,inactive: 14%

row,Compound,"activity change, negative = inhibition"
1,Cc1cccc2cc(CN(CC3CCCO3)C(=O)c3cccc(F)c3)c(N(C)C)nc12 (centres undefined),inactive: 4.32%
2,CC1CCC2=C1C[C@H](C(C)(C)O)CC[C@@H]2C (some centres undefined),inactive: 5.61%
3,O=C(O)C[C@H]1c2ccccc2S(=O)(=O)N1C1CCCCC1,inactive: 12.9%
4,COc1cccc(Cn2c(=O)c(CCc3ccccc3)nc3cncnc32)c1,inactive: -6.53%
5,COc1ccc(-c2cccc3c2OC(CNC(=O)c2ccccc2-n2cccn2)C3)nn1 (centres undefined),inactive: 8.78%
6,COc1ccc(-c2nc3cnc(N(C)C)nc3n(CCc3ccccc3)c2=O)cc1,inactive: 24.1%
7,COc1ccc(-c2nc3cnc(N4CCOCC4)nc3n(CCC#N)c2=O)cc1,inactive: 68%
8,NC[C@H]1O[C@@H](n2cnc3c(N)ncnc32)[C@H](O)[C@@H]1O,inactive: 8.98% [at 75.8 µM]
9,CC1(C)C(O)CC[C@]2(C)C1CC[C@@]1(C)C2C(=O)C=C2[C@@H]3C[C@@](C)(C(=O)O)CC[C@@]3(C)CCC21C (some centres undefined),inactive: 16.9%
10,Cc1cccc2c(N3CCCC3)nc(CNS(=O)(=O)c3ccccc3Cl)nc12,inactive: -2.99%
11,COc1cccc(Nc2ncc3nc(-c4ccc(F)cc4)c(=O)n(CCC#N)c3n2)c1,inactive: 28.9%
12,c1cnc2cc3c(cc2n1)[C@@H]1CNC[C@H]3C1,inactive: 6.41%
13,O=c1cc(-c2ccccc2)oc2cc(O[C@@H]3O[C@H](CO)[C@@H](O)[C@H](O)[C@H]3O)c(O)c(O)c12,inactive: -17.8%
14,COc1ccc(-c2nc3cnc(N(C)C)nc3n(CCC#N)c2=O)cc1,inactive: 6%
15,O=C(Cn1ccnc1[N+](=O)[O-])NCCO,inactive: 15%
16,CC(=O)OC1CCC2(C)C3=C(CCC2C1(C)C)[C@]1(C)CCC(C(C)CCC=C(C)C)[C@]1(C)CC3 (some centres undefined),inactive: -22.3%
17,CCCCCCCCCCCCCCCC(=O)NC(C)C,inactive: 6.03%
18,COC(=O)c1c(OCCN2CCCCC2)cc(=O)n2c1CCN(Cc1cccc3nccnc13)CC2,inactive: -0.569%
19,Cc1cnc(CNc2ncncc2-c2ccc3c(c2)OCO3)cn1,inactive: 12.8%
20,O=C(O)Cc1csc(-c2ccc(Cl)cc2)n1,inactive: 19.6%
21,C=C1C(=CC=C2CCC[C@]3(C)[C@@H]([C@H](C)C=C[C@H](C)C(C)C)CC[C@@H]23)C[C@@H](O)C[C@@H]1O,inactive: -26.5%
22,Cc1ccccc1C(=O)N1CC/C(=N\OS(=O)(=O)O)c2ccc(Cl)cc21,inactive: 37.7%
23,CCOc1cccc(C(=O)c2ccc(O)c(O)c2O)c1,inactive: -26%
24,O=C(C[n+]1ccc(/C=C/c2c[nH]c3ccccc23)c2ccccc21)c1ccccc1,inactive: 6.98%
